Results published in the supplement of paper PMC7826260.
Some of the results follow. The data describe in vitro nicking of single-stranded DNA by Rep domains at 3 µM enzyme and 37 °C for 1 h; the strands have 90 letters, of which the middle is given. The score is log2 (uncut reads / reads without enzyme); more negative means more cut, near 0 not cut, and no call is made. The scaling is to total reads; values above 0 arise when much of the pool is cut.

How the values were obtained:
Assay in all cases: uncleaved DNA left, log2 of reads against the no-enzyme library (log2 ratio); higher = less cleavage (more negative = more Rep cleavage of the k-mer); sequences stand for … in CTCGTCCG…ACCGGAGA
[1] = system: T1, Rep nickase domain of Muscovy duck circovirus
T1 sequence (Rep 1-111, printed without the tag): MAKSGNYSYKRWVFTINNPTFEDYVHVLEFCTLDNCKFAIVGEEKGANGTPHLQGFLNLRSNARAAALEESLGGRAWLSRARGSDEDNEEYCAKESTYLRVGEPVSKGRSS
Protocol: (§1)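 A pool of 90-nt single-stranded DNAs with seven random bases just before the constant AC of the nick site (name = the seven bases) was cut by 3 µM recombinant His6-SUMO-tagged Rep nickase domain (300 nM DNA, 50 mM HEPES pH 8.0, 50 mM NaCl, 1 mM MnCl2, 1 h, 37 °C, three replicates). Uncut DNA was amplified and sequenced.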

[2] = system: T2, Rep nickase domain of banana bunchy top virus
T2 sequence (Rep 1-94, printed without the tag): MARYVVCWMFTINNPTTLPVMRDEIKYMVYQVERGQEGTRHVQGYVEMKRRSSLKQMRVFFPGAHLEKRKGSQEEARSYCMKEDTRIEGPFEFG
Protocol: as §1

[3] = system: T3, Rep nickase domain of cabbage leaf curl virus
T3 sequence (Rep 1-116, printed without the tag): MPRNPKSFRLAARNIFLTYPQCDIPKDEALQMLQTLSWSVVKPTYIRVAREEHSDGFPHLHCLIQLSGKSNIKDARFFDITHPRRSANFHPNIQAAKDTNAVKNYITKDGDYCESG
Protocol: as §1

[4] = system: T4, Rep nickase domain of chickpea chlorotic dwarf virus
T4 sequence (Rep 1-124, printed without the tag): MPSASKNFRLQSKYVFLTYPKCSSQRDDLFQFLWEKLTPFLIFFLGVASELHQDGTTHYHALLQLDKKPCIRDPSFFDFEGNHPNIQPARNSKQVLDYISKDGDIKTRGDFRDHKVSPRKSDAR
Protocol: as §1

[5] = system: T5, Rep nickase domain of faba bean necrotic yellows virus
T5 sequence (Rep 1-98, printed without the tag): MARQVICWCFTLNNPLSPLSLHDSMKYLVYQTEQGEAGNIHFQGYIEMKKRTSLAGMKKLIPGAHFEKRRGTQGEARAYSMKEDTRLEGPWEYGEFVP
Protocol: as §1

[6] = system: T6, Rep nickase domain of maize striate mosaic virus
T6 sequence (Rep 1-117, printed without the tag): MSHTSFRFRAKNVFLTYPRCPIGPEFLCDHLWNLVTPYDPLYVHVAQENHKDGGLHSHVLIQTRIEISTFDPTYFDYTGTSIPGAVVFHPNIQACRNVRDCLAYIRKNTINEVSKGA
Protocol: as §1

[7] = system: T7, Rep nickase domain of porcine circovirus 2
T7 sequence (Rep 2-116, printed without the tag): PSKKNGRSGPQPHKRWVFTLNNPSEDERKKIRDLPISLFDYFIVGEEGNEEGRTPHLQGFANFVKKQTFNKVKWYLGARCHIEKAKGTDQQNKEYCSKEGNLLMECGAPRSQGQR
Protocol: as §1

[8] = system: T8, Rep nickase domain of tomato yellow leaf curl virus
T8 sequence (Rep 1-136, printed without the tag): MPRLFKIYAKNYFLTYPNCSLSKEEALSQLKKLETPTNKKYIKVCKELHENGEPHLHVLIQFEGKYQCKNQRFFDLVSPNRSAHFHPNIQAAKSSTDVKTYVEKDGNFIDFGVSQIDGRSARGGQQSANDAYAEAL
Protocol: as §1

[9] = system: T9, Rep nickase domain of wheat dwarf virus
T9 sequence (Rep 1-137, printed without the tag): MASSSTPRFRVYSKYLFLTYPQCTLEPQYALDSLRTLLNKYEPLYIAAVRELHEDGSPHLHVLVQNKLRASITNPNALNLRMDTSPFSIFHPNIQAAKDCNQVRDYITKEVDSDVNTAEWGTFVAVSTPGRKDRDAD
Protocol: as §1

Row | Sequence | uncleaved DNA left (log2) [1] | uncleaved DNA left (log2) [2] | uncleaved DNA left (log2) [3] | uncleaved DNA left (log2) [4] | uncleaved DNA left (log2) [5] | uncleaved DNA left (log2) [6] | uncleaved DNA left (log2) [7] | uncleaved DNA left (log2) [8] | uncleaved DNA left (log2) [9]
1 | CGCAACT | -0.00746 | -0.17 | -0.118 | -2.11 | -0.0271 | -0.127 | -0.372 | -0.0521 | -0.165
2 | GTACTAT | 0.149 | 0.0755 | 0.513 | 0.938 | 0.138 | 1.98 | 0.184 | 0.183 | 0.197
3 | TCGTACT | -3.82 | -1.01 | -1.4 | -2.72 | -2.66 | -0.246 | -3.98 | -0.13 | -0.518
4 | TTTCCAT | -0.00128 | 0.0925 | 0.15 | -0.519 | -0.149 | -0.0769 | -0.352 | 0.0832 | 0.0968
5 | CTAAGCT | 0.1 | 0.116 | -2.37 | -2.85 | 0.0859 | -0.836 | 0.102 | 0.0508 | -0.156
6 | GCCTGCC | 0.174 | 0.115 | 0.205 | 0.405 | 0.159 | 0.0587 | 0.226 | 0.0805 | 0.0317
7 | GTGAACC | 0.0485 | 0.122 | 0.412 | 0.942 | 0.11 | 1.79 | 0.11 | 0.125 | 0.119
8 | TTGCCGT | -0.00273 | -0.102 | -0.814 | -0.616 | 0.0444 | -1.06 | -0.175 | -0.021 | -0.0404
9 | GCAAGAT | 0.107 | 0.139 | 0.233 | 0.653 | 0.0813 | 0.78 | 0.204 | 0.0258 | 0.173
10 | AGGCTTG | 0.0129 | 0.0113 | 0.182 | 0.582 | 0.154 | 1.01 | 0.232 | -0.0231 | -0.0527
11 | AAAATCA | 0.129 | 0.169 | 0.126 | -1.81 | 0.139 | -0.137 | 0.101 | 0.137 | 0.19
12 | TTCGTCG | -0.0117 | -0.0661 | -0.854 | -0.0744 | 0.108 | -1.18 | 0.0908 | -0.0888 | -0.0592
13 | GCCTATG | -0.0819 | 0.116 | -0.18 | -0.0898 | 0.0364 | -0.715 | 0.14 | 0.043 | -0.028
14 | GCTTGTA | -0.107 | -0.0557 | -0.0132 | 0.359 | -0.0338 | -0.0336 | -0.218 | -0.0985 | 0.00422
15 | ACCCCTA | -0.0363 | -0.000438 | -0.149 | -1.08 | 0.22 | -0.598 | -0.187 | -0.00299 | -0.0763
16 | AAGTGCC | -0.0832 | -0.0998 | -0.443 | -0.554 | -0.0235 | -0.926 | -0.835 | 0.076 | -0.117
17 | AGATTGC | 0.059 | -0.0639 | -0.634 | 0.331 | 0.0111 | -0.845 | 0.0956 | 0.126 | -0.0797
18 | GTGCCAA | 0.0446 | 0.0592 | 0.452 | 1.03 | -0.0129 | 1.72 | 0.179 | 0.167 | 0.19
19 | CAGTTGT | -0.267 | -1.58 | -0.493 | -1.35 | -0.436 | -0.81 | -3.86 | 0.0449 | -0.182
20 | TCACAGG | -0.0212 | -0.0661 | 0.413 | 1.22 | -0.0556 | 1.16 | 0.0601 | -0.205 | 0.123
21 | CTATAAT | -3.25 | -0.198 | -2.18 | -2.45 | -0.025 | -0.963 | -3.64 | 0.107 | -0.462
22 | GAGGGGT | 0.0523 | 0.0234 | 0.431 | 1.21 | -0.0208 | 1.8 | -0.0314 | -0.0419 | 0.0169
23 | AGACTAG | -0.066 | 0.0711 | -0.126 | 0.129 | 0.0115 | -0.366 | 0.192 | 0.00613 | -0.0742
24 | ACGGGTC | -0.0792 | 0.00748 | -0.0449 | -0.188 | -0.011 | -0.0886 | 0.0113 | -0.156 | 0.00686
25 | ACAGTTG | 0.0778 | -0.0104 | -0.622 | -0.38 | 0.13 | -0.74 | 0.277 | 0.0152 | 0.0323
26 | CTTTCGT | 0.0294 | 0.0235 | -0.508 | -1 | 0.0777 | -1.18 | -0.105 | 0.1 | -0.154
27 | AGAATCG | 0.0756 | 0.0411 | -0.645 | -0.641 | 0.103 | -1.08 | 0.236 | -0.0349 | -0.0434
28 | AGTAGTT | 0.00669 | -0.119 | -0.136 | -1.46 | -0.37 | -0.0865 | -3.4 | -0.0776 | -0.137
29 | GGGACTG | 0.0438 | 0.0371 | 0.73 | 1.74 | -0.106 | 2.23 | 0.179 | -0.149 | 0.108
30 | TCCTTTG | -0.036 | 0.0306 | -0.393 | -0.733 | 0.0985 | -1.14 | 0.158 | 0.0806 | 0.0223
